In the supplement of paper PMC3334620:
Over roughly 33,000 sequences, “E-score (-0.5 to 0.5)” has its median near -0.041; the highest 2% begin near 0.37. Some of the results follow.

target: T1, Ecm22 (UniProt Q05958); assay: PBM E-score (8-mer binding enrichment) (E-score (-0.5 to 0.5)); higher = stronger / more preferred TF binding; most listed sequences are background and not binding sites; settings: protein concentration: 200 nM; construct: GST-full length
T1 sequence: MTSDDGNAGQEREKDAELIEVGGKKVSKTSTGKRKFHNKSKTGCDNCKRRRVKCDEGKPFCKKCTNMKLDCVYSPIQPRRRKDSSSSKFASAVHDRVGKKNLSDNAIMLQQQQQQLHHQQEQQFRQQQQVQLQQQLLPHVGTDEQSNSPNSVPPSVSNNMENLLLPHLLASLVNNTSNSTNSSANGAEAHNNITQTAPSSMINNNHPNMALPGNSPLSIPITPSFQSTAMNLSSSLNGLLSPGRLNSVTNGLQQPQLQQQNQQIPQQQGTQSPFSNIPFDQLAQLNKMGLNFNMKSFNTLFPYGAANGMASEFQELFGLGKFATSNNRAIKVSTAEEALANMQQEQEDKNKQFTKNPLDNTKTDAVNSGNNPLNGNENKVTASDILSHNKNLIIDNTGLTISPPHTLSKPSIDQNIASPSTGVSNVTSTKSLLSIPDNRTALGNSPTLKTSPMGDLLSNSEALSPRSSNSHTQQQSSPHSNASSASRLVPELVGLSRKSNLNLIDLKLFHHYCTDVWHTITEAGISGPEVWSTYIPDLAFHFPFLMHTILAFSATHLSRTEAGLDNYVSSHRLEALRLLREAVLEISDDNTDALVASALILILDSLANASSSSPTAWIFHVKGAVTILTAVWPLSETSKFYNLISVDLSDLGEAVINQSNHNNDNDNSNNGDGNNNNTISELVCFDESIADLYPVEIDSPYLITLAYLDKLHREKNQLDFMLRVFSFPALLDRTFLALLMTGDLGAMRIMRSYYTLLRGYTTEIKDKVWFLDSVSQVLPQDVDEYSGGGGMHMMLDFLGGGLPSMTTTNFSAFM
Method: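 Universal 'all 10-mer' protein binding microarrays (Agilent AMADID 015681) probed with GST-tagged S. cerevisiae TFs (full-length or DBD) made by in vitro transcription/translation (PURExpress), about 100-200 nM. Bound TF was detected with fluorescent anti-GST. Each ungapped 8-mer (which stands for itself and its reverse complement) is scored by the PBM enrichment score (E-score), a modified Wilcoxon-Mann-Whitney statistic from -0.5 to +0.5, computed with the Universal PBM Analysis Suite. Scale: above 0.35 generally sequence-specific binding.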

Row | Sequence | PBM E-score
1 | CTGGAGAC | -0.135
2 | AAAGGACG | 0.0797
3 | AAAAATTG | -0.078
4 | CGCCATAC | 0.171
5 | AGTTTTAT | 0.0219
6 | CCGAAGTA | 0.148
7 | TAGAAGAA | -0.011
8 | AATCAACT | 0.0303
9 | CAAATAAC | 0.0389
10 | AACCATTC | -0.23
11 | ACATCGCC | -0.204
12 | CGTTCTTA | 0.271
13 | CAATGCCA | -0.161
14 | CCGGTAAG | 0.0008
15 | TAACGCGA | 0.189
16 | GCGCTCTA | -0.0931
17 | GATCGCGA | 0.194
18 | TACGGAGA | 0.334
19 | CTGTACAA | -0.0518
20 | TGACGAAA | 0.061
21 | TATCTAAA | 0.128
22 | AAAAAGCC | -0.00844
23 | AGATTGTA | 0.122
24 | GGTTTCGA | 0.0323
25 | ATGGGGAG | -0.115

Row | Sequence | PBM E-score
26 | CAGGGCAC | 0.16
27 | GCAGTACC | -0.0702
28 | TACACGGA | 0.121
29 | GCCACAGC | -0.249
30 | ATCTGTAG | -0.116
31 | AACTCAAA | 0.0495
32 | AAGCGACG | 0.215
33 | CGTAAGCC | 0.199
34 | GTAGGTGA | -0.129
35 | TCAGATGA | -0.231
36 | AGTAATAG | -0.00228
37 | CTCGACTA | -0.0931
38 | CGATGGCC | -0.0616
39 | AGGGGCCA | -0.17
40 | CCTACCGC | -0.144
41 | AGGTGTTC | -0.146
42 | CAGGGGGG | -0.201
43 | AGCTATTG | -0.0818
44 | AAGAAGAA | 0.015
45 | GCGATATA | 0.273
46 | ATGTCGCA | 0.267
47 | CAGAGGGA | -0.00329
48 | ATACGCGC | 0.301
49 | AGTCGTTG | 0.184
50 | CGGAACAC | 0.0377

Row | Sequence | PBM E-score
51 | TAATGCCA | -0.00988
52 | GCCTCAAC | -0.173
53 | ACTTCCTG | -0.106
54 | CGATGCAG | -0.00827
55 | ATACTTAC | 0.0382
56 | GAATCAAA | 0.0232
57 | TAGACACA | -0.238
58 | AGTTGTCA | -0.0616
59 | TCTATCCA | -0.169
60 | ATAAGGGG | -0.228
61 | ACTTATCA | -0.0899
62 | TAATAGAA | -0.0249
63 | AGTCGAGG | -0.0783
64 | CCTTGGGA | -0.316
65 | ACTTACCA | -0.0988
66 | ACCCCGAC | -0.0233
67 | CGGGCTAA | -0.134
68 | AAAGTCCA | -0.244
69 | GAACGAAC | 0.453
70 | AGCCTGGA | -0.301
71 | ACTATCCT | -0.133
72 | AGGGCTAG | -0.279
73 | AATCCCTA | 0.0792
74 | CTCAACTA | -0.194
75 | AGACAGAC | 0.082

Row | Sequence | PBM E-score
76 | AGGGTCAG | -0.273
77 | GTAGACTA | 0.00348
78 | ATATAGAA | 0.00358
79 | GTCCAGAA | -0.142
80 | GAGATGGC | -0.16
81 | AGGTGGGG | -0.193
82 | GTCCCTGA | -0.198
83 | CATAGCGA | 0.0572
84 | CGTCACCC | -0.0688
85 | CACTTTCG | 0.0793
86 | CACAGTTC | -0.0557
87 | AAAATGGC | -0.0688
88 | TCTTACCA | 0.061
89 | TGCATTAA | -0.0505
90 | CCGGCAAC | -0.0588
91 | AGGGACGA | -0.0321
92 | CAAGTAGA | -0.184
93 | CTAGGAAA | -0.209
94 | CCGTCCCG | -0.0784
95 | ATGACTGG | -0.134
96 | CCTTATGC | -0.0883
97 | GAGCTATC | 0.00129
98 | GCGGCGGA | 0.111
99 | CTTGCATA | -0.118
100 | AGCAGATA | 0.0376

Row | Sequence | PBM E-score
101 | ATTTTGAA | 0.059
102 | GACTCAAC | -0.0322
103 | ATTTACGG | 0.31
104 | GATACAAC | -0.0873
105 | CCACTAAC | -0.137
106 | TGCATGAA | 0.0637
107 | CACCGTCG | 0.0865
108 | ATTTAGCC | 0.0231
109 | CCATTTAC | -0.043
110 | ACCACTAT | -0.0396
111 | AAAGAGGT | -0.244
112 | ACTGAGGA | 0.0578
113 | AAGGGATT | -0.119
114 | ACCCAGCG | -0.184
115 | AGGCCGAA | 0.0838
116 | GACATTAC | -0.0488
117 | CACATCCC | -0.181
118 | GGCGATAA | -0.103
119 | ATGATGAA | -0.00452
120 | CATAGTGG | -0.181
121 | AGAAGCAG | -0.203
122 | AGCCGTGG | -0.24
123 | CTCTGGTA | -0.113
124 | GACGAGGA | 0.175
125 | ACAAGGTG | -0.0914

Row | Sequence | PBM E-score
126 | ACCAACTG | -0.122
127 | TATCGCGA | 0.25
128 | AGATCGTC | -0.0821
129 | AAATTATT | -0.156
130 | CCCGAATA | 0.0892
131 | AAGTAGAC | 0.0636
132 | ACACAGGG | -0.135
133 | CCAATTGC | -0.241
134 | GGGCTTGA | -0.261
135 | TGCTGTAA | 0.0757
136 | AACCTGAA | -0.2
137 | CATGGCAA | -0.147
138 | GCCGAACA | 0.135
139 | CCAACTAG | -0.172
140 | TTCAACAA | 0.00651
141 | ATATGGAT | 0.133
142 | ACCTTGCT | -0.183
143 | ACAGCTAG | -0.195
144 | ATCCACTG | -0.192
145 | TAGCGGAA | 0.0753
146 | CGGCACGC | 0.161
147 | GGGGATCA | -0.16
148 | AAAGTCCC | -0.187
149 | ACTTCGGG | -0.0975
150 | CAAAGCAC | -0.134

Row | Sequence | PBM E-score
151 | CTGTCTTC | -0.0637
152 | GATAGAGC | 0.0232
153 | ACTTTACG | 0.394
154 | AAAGTTCA | -0.0813
155 | TGCCAAAA | -0.209
156 | GTATTAAC | 0.26
157 | CGTGGGAA | -0.0898
158 | ACAGGTGC | -0.296
159 | AGTGCCAG | -0.285
160 | ACGTAGTA | 0.16
161 | ACGGGCGA | 0.0901
162 | ACTGATGG | -0.294
163 | CAACAGCC | -0.0816
164 | CCGGTACA | 0.0868
165 | CACGAAGA | 0.226
166 | ATGTCATC | -0.129
167 | GGGGCGCA | -0.18
168 | ACACGCTC | 0.072
169 | CAGACTCG | 0.174
170 | ATCTAGCC | -0.0568
171 | ACATTGAA | 0.0404
172 | ACCTCAGC | 0.0319
